Among all 48,000 compounds or so, about 550 (1.1%) were called active. Another 4% or so got no clear call; they are omitted. Cut-off read from the data, not from the text of the source: active = potency below about 15 µM; inconclusive = mostly about 16 µM to 33 µM; inactive = weaker than that. This is one part of the list. Where only a bound is given, the exact number is not on record here.

The values below come from PubChem BioAssay AID360 (National Center for Advancing Translational Sciences (NCATS), 2006).
Potency is the fitted concentration of half-maximal effect.

Chain of UniProt P04062 (P04062 whole entry, looked up): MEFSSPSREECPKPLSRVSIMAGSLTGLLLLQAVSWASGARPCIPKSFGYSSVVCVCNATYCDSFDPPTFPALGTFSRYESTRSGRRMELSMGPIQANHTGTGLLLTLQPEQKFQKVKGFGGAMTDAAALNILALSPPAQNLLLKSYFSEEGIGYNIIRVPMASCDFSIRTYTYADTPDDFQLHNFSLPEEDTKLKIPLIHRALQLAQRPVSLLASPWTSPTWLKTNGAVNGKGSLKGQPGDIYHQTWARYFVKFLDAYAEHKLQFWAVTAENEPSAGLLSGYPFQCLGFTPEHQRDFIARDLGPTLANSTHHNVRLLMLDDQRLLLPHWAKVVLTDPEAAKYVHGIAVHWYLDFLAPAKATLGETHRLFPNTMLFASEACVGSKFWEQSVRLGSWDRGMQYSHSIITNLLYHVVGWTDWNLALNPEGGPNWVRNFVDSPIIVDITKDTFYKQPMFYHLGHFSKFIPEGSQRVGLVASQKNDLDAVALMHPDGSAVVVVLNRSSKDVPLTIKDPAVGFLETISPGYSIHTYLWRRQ

The target of this test is Lysosomal acid glucosylceramidase (Homo sapiens) (UniProt P04062). Nature of the test: Glucocerebrosidase.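 Note: the screen sought inhibitors.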 The following applies: purified enzyme, resorufin glucoside fluorescence (screen aimed at inhibitors), 20 min; series mostly up to 77 µM. Put shortly:
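Compounds titrated against 0.2 nM normal enzyme, 30 uM resorufin beta-D-glucopyranoside substrate, citrate/phosphate buffer with taurocholate and tween-20, pH 5.9. Reaction ran 20 min at room temperature; fluorescence (Ex 548/Em 600) gave AC50.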
Consider `O=C(C1=C(O)C(=O)N(Cc2ccccc2)C1c1cccnc1)c1ccco1` (centres undefined), for which the Potency is inactive: > 76.9 µM. Turning to `O=C(CSc1nnnn1C1CCCCC1)NCc1cccc(C(=O)O)c1`, the Potency was inactive: > 76.9 µM. On to `COc1ccccc1-n1c(CNc2c(C)cccc2C)nnc1SCC(=O)N1CCOCC1`, for which the Potency was inactive: > 76.9 µM.

Consider `Cc1nnc(SCC(=O)N2CCc3ccccc32)s1`, for which the Potency is inactive: > 76.9 µM. As to `CCn1cc(C(=O)NCCCOC)c2cc(OC)c(OC)cc2c1=O`, the Potency was inactive: > 76.9 µM. Regarding `COc1cc(-c2nnc(-c3ccc(N4CCOCC4)cc3)o2)cc(OC)c1OC`, the Potency is inactive: > 76.9 µM. Then `Cc1cc(=O)oc(C)c1C(=O)NCc1c(F)cc(F)cc1F`, with inactive: > 76.9 µM; and `CCC(=O)c1cc(-c2nc3ccccc3n2C)n(C)c1`, with inactive: > 76.9 µM. As for `OC(COc1ccc2ccccc2c1)CN1CCCC1` (centres undefined), the Potency was inactive: > 76.9 µM. Take `Cc1cccc(C)c1NC(=O)c1cc(S(=O)(=O)N2CCOCC2)ccc1F`: the Potency was inactive: > 76.9 µM. As to `CCN1CCN(Cc2c(C)[nH]c3ccc(OC)cc3c2=O)CC1`, the Potency is inactive: > 76.9 µM. As to `CCOc1ccc2oc(C(=O)OCC(=O)NC(=O)NC3CCCC3)c(C)c2c1`, the Potency was inactive: > 76.9 µM. In the case of `COc1ccc(-c2nnc(Nc3nc4c(OC)cccc4s3)o2)cc1`, the Potency is inactive: > 76.9 µM. As to `Cc1nc(CCNC(=O)Cc2ccccc2)cs1`, the Potency is inactive: > 76.9 µM. Then `COc1ccc(C2CC(=O)c3cnc(NC(=O)c4ccccc4OC)nc3C2)c(OC)c1` (centres undefined), with inactive: > 76.9 µM; and `Fc1ccc(N2CCN(C(c3cccs3)c3nnnn3CCc3ccccc3)CC2)cc1` (centres undefined), with inactive: > 76.9 µM; and `CSc1nc(N)nc(SC2C=CCCC2)c1C#N` (centres undefined), with inactive: > 76.9 µM. Then `Cc1ccc2[nH]c(=O)c(C(c3nnnn3CC3CCCO3)N3CCOCC3)cc2c1` (centres undefined), with inactive: > 76.9 µM; and `CC(=O)Nc1ccc(C(=O)OCC(=O)NC(=O)NC2CCCCC2)cc1`, with inactive: > 76.9 µM. On to `CCN(CC)CCN1C(=O)C(=O)/C(=C(/O)c2ccncc2)C1c1ccccc1F` (centres undefined), for which the Potency was inactive: > 76.9 µM.

As for `N#Cc1nc(-c2cccs2)oc1NCc1ccco1`, the Potency was inactive: > 76.9 µM. Then `COc1ccc(-n2c(C)cc(C(=O)CSc3nn4c(=O)c(C(C)(C)C)nnc4s3)c2C)cc1`, with inactive: > 76.9 µM. Then `C=CCn1c(=N)n(CC(=O)O)c2ccccc21`, with inactive: > 76.9 µM. Regarding `COc1ccc2c(c1)C(NC(C)=O)C(=O)N2C` (centres undefined), the Potency is inactive: > 76.9 µM. On to `CC(C)c1nc(=S)n(-c2ccccc2)[nH]1`, for which the Potency is inactive: > 76.9 µM.

`COc1ccc(Nc2nccc3c2nnn3C)cc1`: the Potency was inactive: > 76.9 µM. To `CCOC(=O)CSc1n[nH]c(-c2cccnc2)n1` belongs inactive: > 76.9 µM; to `CCN(CC)CCCN1C(=O)C(O)=C(C(=O)c2ccco2)C1c1ccc(OC(C)C)cc1` (centres undefined), inactive: > 76.9 µM; to `COCCCn1c(CCC(=O)O)ccc1-c1cccs1`, inactive: > 76.9 µM.

`CCOc1ccc(C)cc1S(=O)(=O)NC1CCCCC1`: the Potency is inactive: > 76.9 µM.

Regarding `Cn1c(/N=C/c2cc(Cl)ccc2O)nc2ccccc21`, the Potency is inactive: > 76.9 µM.

Regarding `Cc1c(C(=O)Nc2ccc(F)cc2)oc2ccc(S(=O)(=O)N3CCC4(CC3)OCCO4)cc12`, the Potency is inactive: > 76.9 µM. To `Cc1ccc(-n2c(SCC(=O)OC(C)C)nnc2-c2cnccn2)cc1` belongs inactive: > 76.9 µM; to `C=CCn1c(SCCC(=O)O)nc2c1c(=O)n(C)c(=O)n2C`, inactive: > 76.9 µM. On to `O=C(O)CCc1ccc(-c2cccs2)n1Cc1ccco1`, for which the Potency was inactive: > 76.9 µM. For `CC(=O)C1=C(C)NC(=O)NC1c1ccc(OC2CCCC2)cc1` (centres undefined), the Potency is inactive: > 76.9 µM. Take `O=C(Cc1c(F)cccc1Cl)Nc1cccnc1`: the Potency was inactive: > 76.9 µM. With `Cc1ccc(C)n1-c1ccc(-c2nnco2)cc1`, the Potency is inactive: > 76.9 µM. With `CCCn1c(C)cc(=O)c2cc(NC(=O)c3ccccn3)ccc21`, the Potency result was “inactive”. As to `COc1ccccc1N1CCN(S(=O)(=O)c2ccc3c4c(cccc24)C(=O)N3)CC1`, the Potency is inactive: > 76.9 µM. With `CC1=C(C(=O)Nc2ccccc2)C(c2ccc(C)o2)n2ncnc2N1` (centres undefined), the Potency was inactive: > 76.9 µM. As for `CC(C)(C)NC(=O)C(c1ccncc1)N(C(=O)CNC(=O)c1ccco1)c1ccc2c(c1)OCO2` (centres undefined), the Potency was inactive: > 76.9 µM. `Cc1ccccc1S(=O)(=O)Cc1ccc(C(=O)NCCCN2CCN(C)CC2)o1`: the Potency was inactive: > 76.9 µM.

For `CCc1nnc(NC(=O)CCC(=O)N2CCN(Cc3cc(F)ccc3OC)CC2)s1`, the Potency was inactive: > 76.9 µM. Then `CCc1c(C)nc(N)n2c(SCC(=O)N3CCCc4ccccc43)nnc12`, with inactive: > 76.9 µM; and `CC(C)c1ccc(-c2nnn(Cc3nc4ccccc4s3)n2)cc1`, with inactive: > 76.9 µM. Then `CCOC(=O)C1(C(F)(F)F)N=C(N(C)C)OC(N(C)C)=N1`, with inactive: > 76.9 µM; and `O=c1[nH]c(CSc2ncc(-c3ccc(F)cc3)n2Cc2ccco2)nc2ccccc12`, with inactive: > 76.9 µM; and `CC(=O)Nc1cc(NC(C)=O)cc(C(=O)NC(C)(C)C)c1`, with inactive: > 76.9 µM. `COc1ccc(OCCC(=O)N2CCCCC2)cc1`: the Potency is inactive: > 76.9 µM.

Consider `CCOc1ccc(-c2nnc(-c3ccco3)o2)cc1OCC`, for which the Potency is inactive: > 76.9 µM. Then `Cn1c(=O)c2c(ncn2CC(N)=O)n(C)c1=O`, with inactive: > 76.9 µM. With `COc1ccc(C2=NOC(C(=O)NCC(C)C)C2)cc1` (centres undefined), the Potency was inactive: > 76.9 µM.

As to `CN(C(=O)c1cccc(C#N)c1)c1nnc(-c2cnccn2)s1`, the Potency was inactive: > 76.9 µM. Consider `CSc1nc(C)c(Oc2ccccc2)c(=O)n1C`, for which the Potency was inactive: > 76.9 µM.

Turning to `O=C(NC12CC3CC(CC(C3)C1)C2)N1CC2Cc3cccc(=O)n3C(C2)C1` (centres undefined), the Potency was inactive: > 76.9 µM. With `COC(=O)c1ccc(CSc2nc3ccccc3c(=O)n2-c2cccc(OC)c2)o1`, the Potency is inactive: > 76.9 µM. `CCOC(=O)NC(=O)CSc1ccccn1`: the Potency was inactive: > 76.9 µM.

As to `O=C(c1cc2ccccc2o1)N1CCCCCC1`, the Potency is inactive: > 76.9 µM.
